This is one part of the list. At the low end of the ranking the order means little.

This experiment deals with SIX1-Q177R homeodomain (UniProt Q15475). Kind of experiment: universal protein binding microarray. The note with it: Universal all-10-mer PBM (8x60K, AMADID 030236), 300 nM GST-tagged protein, Alexa Fluor 488 anti-GST; buffer, salt, pH and temperature not stated; high values mean tight binding; most listed sequences are background and not binding sites; double strand, one strand shown.
As to ACAACCAC, the binding signal is -0.0534 E-score.
For TCCGCCGA the value was 0.132 E-score.
With AGAAACAG, the binding signal is -0.16 E-score.
In the case of ACCCAGCA, the binding signal was 0.0937 E-score.
The same measure for GATAAGAC: -0.184 E-score; for TACCTATA: 0.129 E-score; for ATAAAGCC: -0.256 E-score.
The same measure for CGAATACC: 0.0724 E-score; for CACCATCC: 0.252 E-score.
Consider GAGAACGC, for which the binding signal was -0.0345 E-score.
On to ATTATCAG, for which the binding signal was -0.053 E-score.
In the case of GCACAACA, the binding signal turned out to be 0.156 E-score.
Consider AGTAGTGC, for which the binding signal was -0.0575 E-score.
Turning to ACTAATTA, the binding signal was -0.0376 E-score.
As to AGTCCTAC, the binding signal was found to be 0.0528 E-score.
The same measure for TACCGACA: 0.166 E-score; for GTCCGTTA: 0.062 E-score.
On to GGACAAGA, for which the binding signal is -0.0831 E-score.
For TAGTATCA the value was 0.221 E-score; for GAGTCTGA, -0.212 E-score.
In the case of ACTGAGTG, the binding signal was 0.177 E-score.
On to ACGGCACA, for which the binding signal was 0.0506 E-score.
As for ACTAATCC, the binding signal was found to be 0.0475 E-score.
Regarding CTGCAGAA, the binding signal was -0.162 E-score.
For CGACACAA, the binding signal was found to be 0.201 E-score.
For the sequence CACCCTCA, the binding signal was 0.264 E-score.
Regarding GACCCCAA, the binding signal worked out at 0.128 E-score.
The same measure for GGTAAATA: 0.0192 E-score; for AGCCGCAT: -0.162 E-score; for ACGCTCGA: -0.004 E-score.
Take AAGCAAAT: the binding signal was -0.201 E-score.
For the sequence AATCGTCC, the binding signal is -0.1 E-score.
Take ACGTCTCT: the binding signal was -0.184 E-score.
As for GGTTGGGA, the binding signal was -0.113 E-score.
CGAATAGC: the binding signal was -0.119 E-score.
For the sequence AGGACCCG, the binding signal was -0.0245 E-score.
The same measure for AGATACGG: -0.0698 E-score; for GCGAATAA: -0.187 E-score.
For the sequence ACTTGACC, the binding signal is -0.0106 E-score.
For the sequence CCTTTATC, the binding signal is -0.0437 E-score.
As to TCGAGAAA, the binding signal was -0.125 E-score.
The same measure for ATCGACAC: 0.436 E-score.
GACCCATC: the binding signal was found to be 0.0469 E-score.
As to CAAAGTAG, the binding signal is -0.067 E-score.
As to CACTCGGC, the binding signal was found to be 0.237 E-score.
Take CATTTACA: the binding signal is 0.267 E-score.
For TCCCTAAA, the binding signal was -0.0962 E-score.
In the case of GAACCTTC, the binding signal was -0.0582 E-score.
For ATTGTTTA, the binding signal is -0.233 E-score.
In the case of ACGCAAAC, the binding signal was -0.00923 E-score.
Turning to AGCTACGA, the binding signal is -0.0562 E-score.
In the case of CCGCTGGC, the binding signal stood at 0.000735 E-score.
The same measure for ATCCCCTC: 0.196 E-score.
The same measure for AACCGGTG: 0.299 E-score.
In the case of AAGGCTGC, the binding signal was -0.0775 E-score.
Regarding CGCCGACG, the binding signal is -0.0974 E-score.
For the sequence CTTTGCTA, the binding signal was determined as 0.0142 E-score.
Take GGTCTGCA: the binding signal is -0.0446 E-score.
AATCCGCC: the binding signal is -0.206 E-score.
Consider CGGTTGAC, for which the binding signal is -0.0908 E-score.
Take AATTACGT: the binding signal is -0.0689 E-score.
The same measure for AGCTAGTG: 0.0541 E-score.
Turning to CCAGGCCA, the binding signal worked out at 0.00406 E-score.
For AATTGGTA, the binding signal was -0.0831 E-score.
Take ACATCGAT: the binding signal is -0.00548 E-score.
The same measure for GTGAAGAA: -0.191 E-score; for ATTAAGGC: -0.00568 E-score; for CTCACTTA: 0.00681 E-score.
For the sequence AGGATATA, the binding signal is -0.125 E-score.
As to TTCGAGAA, the binding signal is -0.112 E-score.
For CATAAAGA, the binding signal was -0.228 E-score.
For AATAAATC the value was -0.26 E-score; for AAAAGTCG, -0.107 E-score; for CATGAAGG, -0.0771 E-score.
For CTAGCCAG the value was -0.3 E-score.
For the sequence GATGAAGC, the binding signal is -0.0285 E-score.
For GCCATAAC the value was -0.0991 E-score; for CTCGCATA, 0.0695 E-score.
As to AAGGAATG, the binding signal was -0.341 E-score.
Regarding TCATAAAA, the binding signal was -0.22 E-score.
Consider CACGCCAC, for which the binding signal was determined as 0.147 E-score.
Consider GATTTCGA, for which the binding signal is -0.347 E-score.
Take ATTTTCAG: the binding signal was -0.0505 E-score.
As for CGGACGCC, the binding signal was 0.0275 E-score.
As to CTGTTCAC, the binding signal amounted to 0.012 E-score.
For ACAGTCGT, the binding signal is -0.168 E-score.
With TCAGTTAA, the binding signal is -0.141 E-score.
As to CCTATATC, the binding signal turned out to be 0.0423 E-score.
In the case of ATCGATGC, the binding signal turned out to be 0.0132 E-score.
The same measure for CTGGCCAG: -0.153 E-score; for CATCTATC: -0.152 E-score; for GATGACAA: -0.103 E-score.
Turning to GATATCTA, the binding signal was -0.136 E-score.
With ACGACAAA, the binding signal was -0.193 E-score.
On to CCTCGTAC, for which the binding signal turned out to be 0.0049 E-score.
As for GAGCGAAA, the binding signal was -0.0904 E-score.
With CGCTCTGC, the binding signal was -0.14 E-score.
Regarding GCCGTTCA, the binding signal is -0.156 E-score.
Take GCCGTTAC: the binding signal is -0.0494 E-score.
Regarding TCACAAAA, the binding signal is -0.0854 E-score.
As to GTCCGCTA, the binding signal was -0.0266 E-score.
In the case of CCGGCCAA, the binding signal was -0.0692 E-score.
Take ATAACTAG: the binding signal is -0.0059 E-score.
Take TACGCCAA: the binding signal was 0.0711 E-score.
As to CTCACTCA, the binding signal is -0.185 E-score.
The same measure for TGAGCCCA: -0.0468 E-score; for AGCGCGTG: 0.126 E-score; for GAGGTCGC: -0.119 E-score.
The same measure for CCTCAAAG: 0.125 E-score.
For the sequence ACAGGGTA, the binding signal was found to be 0.207 E-score.
As to CTGGTCAC, the binding signal was -0.0176 E-score.
As to ATACGAAT, the binding signal is -0.00302 E-score.
For TCCCGCCA the value was -0.0626 E-score; for GGCCTAAA, -0.222 E-score.
The same measure for ATCAAATA: -0.0441 E-score; for ATTGATTC: -0.0356 E-score.
With CTCGAAGC, the binding signal is -0.206 E-score.
For the sequence CGAAGTAG, the binding signal worked out at 0.018 E-score.
For GGTGCGTA, the binding signal worked out at 0.161 E-score.
Consider CTCGACGA, for which the binding signal is -0.162 E-score.
In the case of ACATGCAC, the binding signal worked out at 0.0917 E-score.
With ATTCTTCG, the binding signal was -0.138 E-score.
Turning to ATCGAAGA, the binding signal was -0.0101 E-score.
For AATCTGGG, the binding signal was -0.152 E-score.
AATGCATG: the binding signal was -0.0402 E-score.
The same measure for AGATCAGC: -0.0988 E-score.
Regarding CTAAGAAC, the binding signal is -0.105 E-score.
In the case of ATACTCGA, the binding signal is 0.0501 E-score.
Regarding ATATAAAC, the binding signal was -0.206 E-score.
The same measure for AGACAGCA: -0.197 E-score; for GAGGCCGA: -0.161 E-score; for CGTCAACC: -0.0357 E-score.
Consider GCATGGGC, for which the binding signal was -0.163 E-score.
As to CCAAAGGG, the binding signal came out at 0.0504 E-score.
For CCATGTAA, the binding signal is -0.167 E-score.
Regarding CTACGGAC, the binding signal was determined as 0.00198 E-score.
For ATAAAACG, the binding signal was -0.0934 E-score.
The same measure for ACTAAGCG: -0.0449 E-score.
For the sequence AGATATAC, the binding signal was -0.0243 E-score.
Take AACACTGG: the binding signal was found to be 0.373 E-score.
As to AGATTATG, the binding signal is -0.0365 E-score.
As for CCTGGGAC, the binding signal turned out to be 0.0224 E-score.
As for GGCAGATA, the binding signal was -0.0504 E-score.
As to TATAGGCA, the binding signal was -0.223 E-score.
On to ACGGTATG, for which the binding signal was -0.0684 E-score.
As to GCTAATAC, the binding signal is 0.0371 E-score.
On to GGTATTTA, for which the binding signal was -0.0579 E-score.
The same measure for CCTGGCTC: -0.114 E-score; for GGCTTCAC: -0.216 E-score; for TAAAACTA: 0.0316 E-score.
Consider GAGTTCCC, for which the binding signal was -0.0114 E-score.
As to CGTCTGCC, the binding signal was -0.0793 E-score.
Take CAACTTGA: the binding signal was -0.144 E-score.
Take AAATAAAG: the binding signal was -0.139 E-score.
CACATACC: the binding signal came to 0.0638 E-score.
Turning to GCCAATTA, the binding signal is -0.222 E-score.
For the sequence GCATCAGC, the binding signal is -0.104 E-score.
For ATAGCAAA, the binding signal was -0.12 E-score.
With GTGCTTAA, the binding signal amounted to 0.0202 E-score.
As for ATATATCG, the binding signal is -0.169 E-score.
On to CGATTCTC, for which the binding signal was -0.0426 E-score.
For GGCAGGAA, the binding signal was -0.0362 E-score.
CTGGCACC: the binding signal worked out at 0.11 E-score.
For CATCCCCG the value was -0.0232 E-score.
For AAGCTCGT, the binding signal is -0.0677 E-score.
For the sequence AAGTTCGA, the binding signal is -0.0213 E-score.
Take AGGCGGGG: the binding signal came out at 0.159 E-score.
The same measure for AGTCGGTA: -0.139 E-score.
For GCATAGCC the value was -0.21 E-score; for AGACATGA, 0.0383 E-score; for ATCTTCGC, -0.126 E-score.
In the case of CTAATGTC, the binding signal was -0.0267 E-score.
